Source: patent US20100316570A1 (University of Pennsylvania, published 2010)

Biological target: SIRPα on human-derived THP-1 macrophages (human, UniProt P78324 31-504)
Experiment: cell-based or functional assay

Sequence of UniProt P78324 (P78324 31-504): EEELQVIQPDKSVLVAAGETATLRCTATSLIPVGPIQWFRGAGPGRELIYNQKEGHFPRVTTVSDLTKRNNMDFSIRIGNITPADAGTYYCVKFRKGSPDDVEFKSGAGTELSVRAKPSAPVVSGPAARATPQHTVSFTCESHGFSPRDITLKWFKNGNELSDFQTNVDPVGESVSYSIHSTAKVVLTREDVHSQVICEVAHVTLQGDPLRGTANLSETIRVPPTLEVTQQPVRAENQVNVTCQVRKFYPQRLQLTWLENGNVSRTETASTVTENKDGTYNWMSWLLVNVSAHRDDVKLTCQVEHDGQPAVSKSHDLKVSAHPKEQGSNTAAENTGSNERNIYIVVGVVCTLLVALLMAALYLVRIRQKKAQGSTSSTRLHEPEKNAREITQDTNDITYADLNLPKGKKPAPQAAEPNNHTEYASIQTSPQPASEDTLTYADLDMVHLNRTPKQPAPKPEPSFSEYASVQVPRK

B1: human CD47 on human red blood cells (ligand)
chain: not shown
enrichment of SIRPα at the phagocytic synapse, human-RBC contacts compared with sheep RBCs or CD47-blocked human RBCs: 5 fold | nonmuscle myosin IIA localization to the phagocytic synapse, human RBCs versus sheep RBCs and CD47-blocked human RBCs: 3.8 fold decrease | phospho-paxillin delocalization from the phagocytic synapse: 3 fold | phosphotyrosine at the phagocytic synapse, human RBCs versus sheep RBCs or CD47-blocked human RBCs: 3.2 fold lower
